The values that follow come from publication PMC4336329 (PLoS ONE, 2015).

The campaign covered roughly 310,000 compounds. About 2,200 (0.71%) showed an effect of 50% or more. Effects have a minus sign here. The list shows a part of the results.

Chain of human ether-à-go-go-related gene (hERG) potassium channel (Q12809 whole entry, looked up): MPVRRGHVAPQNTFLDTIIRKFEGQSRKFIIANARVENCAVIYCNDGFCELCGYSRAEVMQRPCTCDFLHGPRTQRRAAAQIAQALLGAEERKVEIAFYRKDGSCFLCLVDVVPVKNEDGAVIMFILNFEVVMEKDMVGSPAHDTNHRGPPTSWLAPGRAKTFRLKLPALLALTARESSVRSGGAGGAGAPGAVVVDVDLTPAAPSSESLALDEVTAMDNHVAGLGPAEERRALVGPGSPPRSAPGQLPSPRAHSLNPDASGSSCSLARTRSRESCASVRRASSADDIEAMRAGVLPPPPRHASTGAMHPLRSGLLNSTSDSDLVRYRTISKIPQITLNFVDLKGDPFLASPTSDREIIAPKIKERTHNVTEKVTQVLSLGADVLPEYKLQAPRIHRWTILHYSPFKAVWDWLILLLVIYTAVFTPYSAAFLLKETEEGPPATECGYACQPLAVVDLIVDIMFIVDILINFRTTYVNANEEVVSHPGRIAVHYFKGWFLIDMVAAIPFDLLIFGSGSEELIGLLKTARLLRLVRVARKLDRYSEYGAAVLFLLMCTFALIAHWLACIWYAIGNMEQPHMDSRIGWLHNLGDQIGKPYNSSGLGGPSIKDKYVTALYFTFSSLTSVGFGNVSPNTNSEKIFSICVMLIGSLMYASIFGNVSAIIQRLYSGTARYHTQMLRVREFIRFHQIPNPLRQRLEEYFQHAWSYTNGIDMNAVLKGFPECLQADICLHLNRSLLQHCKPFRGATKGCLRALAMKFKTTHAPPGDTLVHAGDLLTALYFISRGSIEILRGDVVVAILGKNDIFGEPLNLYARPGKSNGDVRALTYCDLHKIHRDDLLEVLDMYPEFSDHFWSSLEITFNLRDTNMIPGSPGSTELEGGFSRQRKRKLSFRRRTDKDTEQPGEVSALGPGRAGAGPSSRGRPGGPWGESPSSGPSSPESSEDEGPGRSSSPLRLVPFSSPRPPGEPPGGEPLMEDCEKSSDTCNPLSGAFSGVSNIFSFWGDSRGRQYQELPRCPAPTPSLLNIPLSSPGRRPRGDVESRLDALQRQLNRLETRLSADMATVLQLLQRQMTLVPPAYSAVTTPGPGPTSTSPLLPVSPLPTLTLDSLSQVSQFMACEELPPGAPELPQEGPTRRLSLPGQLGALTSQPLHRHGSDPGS

The assay has as its target human ether-à-go-go-related gene (hERG) potassium channel (human, UniProt Q12809). Description: primary screen, population patch clamp on CHO cells stably expressing hERG.
For `O=C(COC(=O)Cc1ccsc1)Nc1cccc(Cl)c1`, the “hERG current change (%, negative = inhibition) at 1uM” value was found to be 0.601%.

With `CS(=O)(=O)Nc1ccc(-c2n[nH]c(=S)n2-c2ccccc2)cc1`, the “hERG current change (%, negative = inhibition) at 1uM” value is reported as -6.01%.

On to `COc1ccc(NS(=O)(=O)c2csc(C(=O)Nc3ccccc3)c2)cc1`, for which the “hERG current change (%, negative = inhibition) at 1uM” value is recorded as 9.66%.

On to `CCC1(C)NC(=O)N(CC(=O)N2CCC(Cc3ccccc3)CC2)C1=O` (stereo not shown), for which the “hERG current change (%, negative = inhibition) at 1uM” value is 11.1%.

Consider `O=C(c1ccc(Cl)cc1)c1ccc(OCC(O)CN2CCCCC2)cc1` (stereo not shown), for which the “hERG current change (%, negative = inhibition) at 1uM” value is reported as -42.2%.

For `COC(=O)c1ccc2c(=O)n(-c3ccccc3)c(=S)[nH]c2c1`, the “hERG current change (%, negative = inhibition) at 1uM” value came out at 11.8%.

For `Cc1c(CNC2CCCC2)c(C(=O)O)c(C)n1Cc1ccccc1`, the “hERG current change (%, negative = inhibition) at 1uM” value is on record as 10.7%.

`NC(=S)N=Nc1c(O)n(Cc2ccc(Br)cc2)c2ccccc12`: the “hERG current change (%, negative = inhibition) at 1uM” value worked out at 13.9%.

Consider `CCOC(=O)/C=C/C(=O)Nc1ccc(S(=O)(=O)Nc2nccs2)cc1`, for which the “hERG current change (%, negative = inhibition) at 1uM” value amounted to 9.05%.

`COc1ccc(C2=NN(CC(=O)NCc3ccco3)C(=O)CC2)cc1`: the “hERG current change (%, negative = inhibition) at 1uM” value was 9.02%.

Take `CCCCc1ccc(NC(=S)NCc2cccs2)cc1`: the “hERG current change (%, negative = inhibition) at 1uM” value came to 22.6%.

As for `CCCCCCCCC(=O)N/N=C(\C)c1ccco1`, the “hERG current change (%, negative = inhibition) at 1uM” value was found to be 10.1%.

Take `COc1ccc(S(=O)(=O)[O-])cc1P(=O)(c1ccccc1)c1ccccc1.[Na+]`: the “hERG current change (%, negative = inhibition) at 1uM” value is given as 6.37%.

For `CC(C)CNC(=O)c1cccc(NC(=O)Cc2ccc(Br)cc2)c1`, the “hERG current change (%, negative = inhibition) at 1uM” value was found to be 8.87%.

Turning to `N#Cc1ccc(NC(=O)Cn2cnc(S(=O)(=O)N3CCCC3)c2)cc1`, the “hERG current change (%, negative = inhibition) at 1uM” value is recorded as 15.7%.

Regarding `CN(C(=O)CCS(=O)(=O)c1cc2c(cc1Cl)NC(=O)CO2)C1CCCCC1`, the “hERG current change (%, negative = inhibition) at 1uM” value is listed as 7.08%.

Regarding `CC(=NCc1ccco1)c1c(C)[nH]n(-c2nc3ccccc3s2)c1=O`, the “hERG current change (%, negative = inhibition) at 1uM” value is listed as 6.83%.

`CC(C(=O)Nc1ccc2c(c1)OCCO2)N(c1ccccc1)S(C)(=O)=O` (stereo not shown): the “hERG current change (%, negative = inhibition) at 1uM” value is on record as 4.8%.

As for `CC(=O)N1CCN(c2nc(-c3cccs3)nc3ccccc23)CC1`, the “hERG current change (%, negative = inhibition) at 1uM” value is listed as -49.4%.

With `CN(C)S(=O)(=O)c1ccc(N2CCCC2)c(C(=O)NNC(=O)COc2ccccc2F)c1`, the “hERG current change (%, negative = inhibition) at 1uM” value is -30%.

For the compound `COc1ccc(-c2cc(C(=O)O)nc3ccc4ccccc4c23)cc1OC`, the “hERG current change (%, negative = inhibition) at 1uM” value came out at 14.1%.

Consider `CC(C)(C)NC(=O)COC(=O)c1cc(F)c(F)cc1Cl`, for which the “hERG current change (%, negative = inhibition) at 1uM” value is 11.7%.

As for `CS(=O)(=O)N(CC(=O)NCc1ccco1)c1ccc(Cl)c(C(F)(F)F)c1`, the “hERG current change (%, negative = inhibition) at 1uM” value came out at 4.04%.

Turning to `CCCCNC(=S)N/N=C/c1ccc(C#N)cc1`, the “hERG current change (%, negative = inhibition) at 1uM” value was 17%.

`CCCNC(=O)COc1ncnc2sccc12`: the “hERG current change (%, negative = inhibition) at 1uM” value was determined as 0.673%.

Turning to `CCN1CCSc2ccc(C(=O)NCc3ccccc3C)cc21`, the “hERG current change (%, negative = inhibition) at 1uM” value was 6.38%.

As for `CSCCC(NC(=O)c1cncc(Br)c1)C(=O)O` (stereo not shown), the “hERG current change (%, negative = inhibition) at 1uM” value is given as 2.94%.

`O=C(NCCCn1ccnc1)c1ccco1`: the “hERG current change (%, negative = inhibition) at 1uM” value is 5.46%.

In the case of `CC(C)(C)NS(=O)(=O)c1cc(C(=O)Nc2sccc2C#N)ccc1Cl`, the “hERG current change (%, negative = inhibition) at 1uM” value was found to be 16.1%.

Consider `CCOc1ccccc1NC(=O)Nc1ccc(Cl)cc1`, for which the “hERG current change (%, negative = inhibition) at 1uM” value is recorded as -3.98%.

As to `CCOC(=O)N1CCN(C(=O)Nc2ccccc2Cl)CC1`, the “hERG current change (%, negative = inhibition) at 1uM” value turned out to be 11.8%.

With `COc1ccc(OC)c(C2C(C(=O)c3ccco3)=C(O)C(=O)N2CCN2CCOCC2)c1` (stereo not shown), the “hERG current change (%, negative = inhibition) at 1uM” value is 10.5%.

As for `CN1Cc2ccccc2CC1CNCc1c(C(=O)N2CCCC2)nc2ccccn12` (stereo not shown), the “hERG current change (%, negative = inhibition) at 1uM” value is given as -42%.

Regarding `O=C(c1cccc(NS(=O)(=O)c2ccccc2)c1)N1CCCCC1`, the “hERG current change (%, negative = inhibition) at 1uM” value was 0.63%.

As to `Cc1ccc(-n2nnnc2SCc2ccc(C(=O)O)cc2)cc1C`, the “hERG current change (%, negative = inhibition) at 1uM” value is on record as -80.9%.

With `O=[N+]([O-])c1cccnc1Oc1ccc(OCc2ccccc2)cc1`, the “hERG current change (%, negative = inhibition) at 1uM” value came out at 0.0337%.

Consider `Cc1cccc(N2CCN(C(=O)c3ccc4c(c3)CCN4S(C)(=O)=O)CC2)c1C`, for which the “hERG current change (%, negative = inhibition) at 1uM” value was 9.95%.

As to `Cc1n(CC(O)COC2CCCCC2)c2ccccc2[n+]1C.[I-]` (stereo not shown), the “hERG current change (%, negative = inhibition) at 1uM” value is on record as 4.62%.

Regarding `CC(=O)c1c(C)[nH]c(C(=O)OCC(=O)N(C)C)c1C`, the “hERG current change (%, negative = inhibition) at 1uM” value was 3.44%.

With `Cc1ccc(NC(=O)CN2CCCCCC2)cc1Br.Cl`, the “hERG current change (%, negative = inhibition) at 1uM” value is listed as 5.2%.

For the compound `C[C@H](CCC(=O)O)[C@H]1CC[C@H]2[C@@H]3[C@H](O)C[C@@H]4C[C@H](O)CC[C@]4(C)[C@H]3C[C@H](O)[C@]12C`, the “hERG current change (%, negative = inhibition) at 1uM” value is listed as 10.9%.

In the case of `Fc1ccc(CN2CCCCCCC2)c(F)c1`, the “hERG current change (%, negative = inhibition) at 1uM” value is on record as 14.2%.

As to `C=CCNC(=O)C12CC3CC(C1)CC(C(=O)NCC=C)(C3)C2`, the “hERG current change (%, negative = inhibition) at 1uM” value was -3.26%.

As to `N#CCCN(CC(=O)O)S(=O)(=O)c1ccccc1`, the “hERG current change (%, negative = inhibition) at 1uM” value stood at 7.84%.

Take `Cc1nccn1-c1ccc(C(F)(F)F)cc1[N+](=O)[O-]`: the “hERG current change (%, negative = inhibition) at 1uM” value is reported as 12.9%.

Regarding `O=C(NCc1cccc(C(F)(F)F)c1)c1ccc[nH]1`, the “hERG current change (%, negative = inhibition) at 1uM” value came to 10.1%.

In the case of `CCCn1c(SCC(=O)Nc2cccc(Cl)c2Cl)n[nH]c1=O`, the “hERG current change (%, negative = inhibition) at 1uM” value was determined as 12.6%.

For `Cn1c(O)c(/C=C2\N=c3ccccc3=C2CCNC(=S)NC2CC2)c(=O)n(C)c1=O`, the “hERG current change (%, negative = inhibition) at 1uM” value was -24.1%.

For `Cc1coc(NC(=O)CSc2nc(-c3ccc(Cl)cc3)cc(C(F)(F)F)c2C#N)n1`, the “hERG current change (%, negative = inhibition) at 1uM” value worked out at 3.16%.

Consider `CCC(C)[C@H](NC(=O)N1CCC(C)CC1)C(=O)OC` (stereo partly shown), for which the “hERG current change (%, negative = inhibition) at 1uM” value amounted to 15.4%.

Take `CC1CCN(CCCNC(=O)C2CCC(=O)N2C2CCCC2)CC1` (stereo not shown): the “hERG current change (%, negative = inhibition) at 1uM” value is given as -2.34%.

As to `COc1ccc(C(=O)COC(=O)C2CCN(S(=O)(=O)c3cccc4cccnc34)CC2)cc1`, the “hERG current change (%, negative = inhibition) at 1uM” value was found to be 11.2%.

In the case of `Cc1nn(Cc2ccccc2Cl)c2sc(C(=O)NC(C)(C)C)cc12`, the “hERG current change (%, negative = inhibition) at 1uM” value was found to be 19%.

Turning to `CCOC(=O)Cn1nc(C(F)F)c(Br)c1C`, the “hERG current change (%, negative = inhibition) at 1uM” value was found to be 25.9%.

Turning to `Cc1ccnc(SCc2ccc([N+](=O)[O-])cc2)n1`, the “hERG current change (%, negative = inhibition) at 1uM” value is given as -1.04%.

In the case of `COc1ccc(NC(=O)CN2C(=O)NC(CC(C)C)C2=O)cc1S(=O)(=O)N1CCOCC1` (stereo not shown), the “hERG current change (%, negative = inhibition) at 1uM” value is on record as 10.1%.

As for `N#CC1=C(S)N(c2ccccc2)C(c2ccc(-c3cc(Cl)ccc3Cl)o2)NC1=O` (stereo not shown), the “hERG current change (%, negative = inhibition) at 1uM” value was found to be 8.29%.

Consider `NC(=O)c1c(NC(=O)c2ccccc2F)sc2c1CCCC2`, for which the “hERG current change (%, negative = inhibition) at 1uM” value is 15.6%.
